Assay results reported in PubChem BioAssay AID2060614 (Molecular Pharmacology Branch, DTP, NCI, 2025).
For part of its entries the source gives two or more results. The other results are left out here. The source may hold further records. The records of an entry are repeated measurements (runs, samples, wells, individuals or studies). Brackets with × give the number of equal values in this list.

Tested on: 598228-144-R-J1-PDC complex spheroids, viability
Experiment: Anticancer human tumor 598228-144-R-J1-PDC patient-derived serous endometrial adenocarcinoma cell line growth inhibition [CLK]
Conditions: stronger effect = lower value
Excerpt: A high-throughput screen of multi-cell type tumor spheroids was designed to identify active combinations of […] and targeted small molecules. Complex spheroids include a stromal component modeled by human endothelial cells (HUVEC) and fibroblasts modeled by human mesenchymal stem cells (MSCs). The concentration ranges selected for each drug and investigational agent were based upon clinically achievable concentrations if the clinical Cmax of the agent was known.
Compounds. The drugs and investigational agents: cirtuvivint (SM08502; NSC835563), CC-671 (NSC850746), vemurafenib (NSC761431), tapotoclax (NSC804041), sotorasib (NSC818433), adagrasib (NSC831453), MRTX-1133 (NSC836407), BAY2416964 (NSC825713), copanlisib (NSC816437), inavolisib (NSC800729), abemaciclib (NSC768073), osimertinib (NSC779217), entinostat (NSC756642), eltanexor (KPT-8602, NSC794443), venetoclax (NSC766270), ceralasertib (NSC777638), bortezomib (NSC756655), olaparib (NSC753686), talazoparib (NSC767125), alisertib (NSC759677), peposertib (NSC802822), gemcitabine (NSC613327), 5-fluorouracil (NSC19893), SN-38 (NSC673596), oxaliplatin (NSC266046), paclitaxel (NSC125973), and doxorubicin (NSC123127), were obtained from the National Cancer Institute (NCI) Developmental Therapeutics Program Chemical Repository. The FDA-approved anticancer drug set is available from the Developmental Therapeutics Program at https://dtp.cancer.gov/organization/dscb/obtaining/available plates.htm. […] The stock solutions were prepared in dimethyl sulfoxide (DMSO, Sigma-Aldrich, St. Louis, MO, cat. D2650), except for the platinum complexes which were prepared in saline (Quality Biological, Gaithersburg, MD, cat. 114-055-101), at 800-fold the tested concentration and stored at -70 degrees C prior to their use. All drugs and investigational agents were tested over a range starting from a high concentration at or near the clinical Cmax and decreasing in half-log increments. If the clinical Cmax for an agent had not been determined, the highest concentration tested was 10 microM.
Cell Culture. All cells were maintained in an incubator at 37 degrees C and 5% CO2 with 95% humidity. The PDC lines were cultured according to standard operating procedures established by the NCI PDMR. Briefly, all PDCs were thawed and cultured in Matrigel-coated flasks prepared with a working solution of 1X Ham's F-12 nutrient mix, without supplementation (Invitrogen, Waltham, MA, cat. 11765054), 100 U/mL penicillin-streptomycin (Invitrogen, cat. 15140122), and 2.5% Matrigel (Corning Inc., Corning, NY, cat. 354248) for the first three passages. […]
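Note: spheroids exposed to compounds for seven days before readout; 100% = DMSO vehicle control wells.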

| Compound | viability, T/C (compound alone 0.1 µM) | viability, T/C (compound alone 0.316 µM) | viability, T/C (compound alone 0.0316 µM) |
| --- | --- | --- | --- |
| CNC(=O)c1ccc(Nc2nc(OC3CCCC3)c3c(-c4ccc5nc(C)oc5c4)c[nH]c3n2)c(OC)c1 | 93.3, 87.2, 99.1, 124 (2×), 97.9, 101, 97, 114, 102, 92.3, 99.8% | 111, 110, 107 (2×), 106, 103 (2×), 101 (2×), 94, 102, 120% |  |
| CN1CCN(c2cc(C(=O)Nc3cc4cc(-c5cnn(C)c5)ccc4cn3)ccn2)CC1 | 141, 119 (2×), 105, 130, 110, 111 (2×), 112, 121, 127, 123% |  | 127 (2×), 106, 101, 118, 126, 121, 120 (2×), 112, 129, 117% |
